According to the supplement of paper PMC12217912:
This is one part of the list. The full chains were built here from the parent and the listed change. Inactive controls read about 0.05.

B1: TEV protease; numbered along this chain (parent)
chain: MGESLFKGPRDYNPISSSICHLTNESDGHTTSLYGIGFGPFIITNKHLFRRNNGTLVVQSLHGVFKVKDTTTLQQHLVDGRDMIIIRMPKDFPPFPQKLKFREPQREERICLVTTNFQTKSMSSMVSDTSCTFPSGDGIFWKHWIQTKDGQCGSPLVSTRDGFIVGIHSASNFTNTNNYFTSVPKNFMELLTNQEAQQWVSGWRLNADSVLWGGHKVFMVKPEEPFQPVKEATQL

Variants of: B1
Assay: raw area under fraction-flipped curve 0-4 h after induction (AUC4h, not background-subtracted), DNA-recorder readout of cleavage of the substrate (dimensionless); higher = more cleavage of the substrate by the protease variant
Conditions: temperature: 34 °C; time window: 0-4 h after rhamnose induction
Protocol: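 In vivo DNA recorder in E. coli TOP10(DE3) ΔrhaA at 34 °C. Each TEVp single-site mutant (parent TEVp 0) is paired with a single-site variant of the 7-mer TEVs (canonical ENLYFQ|S). The substrate sits between flexible linkers in a Bxb1-sfGFP-TEVs-SsrA fusion, so cleavage stabilises Bxb1 and speeds flipping of a recombination array, read by NGS. The value is the raw area under the fraction-flipped curve over 0-4 h after rhamnose induction (AUC4h), with ≥20 reads per time point. It is not background-subtracted; inactive controls average about 0.047.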
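Note: Bxb1 expression induced with 0.2% (w/v) L-rhamnose at OD600 near 0.5, cultures sampled hourly, flipped fraction per protease–substrate barcode pair counted by paired-end Illumina sequencing.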

Variant	area with substrate ENLYAQS	area with substrate ENLYDQS	area with substrate ENLYHQS	area with substrate ENLYIQS	area with substrate ENLYPQS	area with substrate ENLYQQS	area with substrate ENLYRQS	area with substrate ENLYTQS	area with substrate ENLYVQS	area with substrate ENLYYQS	area with substrate ENLYCQS	area with substrate ENLYEQS	area with substrate ENLYKQS	area with substrate ENLYNQS	area with substrate ENLYSQS	area with substrate ENLYMQS	area with substrate ENLYWQS	area with substrate ENLYGQS	area with substrate ENLYLQS
N45P	0.076	0.057	0.0648	0.0736	0.0684	0.0764	0.0513	0.0626	0.0741	0.0545									
F187Y	0.0475	0.0637	0.0618		0.0617	0.113	0.0576	0.0814	0.0772		0.0617	0.0662	0.0539	0.059	0.0587				
F187D	0.0512		0.0602		0.0551		0.0435			0.0707	0.0886		0.0608		0.0468	0.0765	0.0506		
F187R	0.0333	0.0216	0.0549		0.0465		0.0708	0.0534	0.0826	0.0554	0.0558	0.0552	0.0433	0.0466		0.0486	0.0514	0.0596	0.055
F41A	0.0696		0.0601	0.112		0.0157		0.0664		0.0394		0.0618	0.0471	0.0704	0.0641	0.07	0.0727	0.0633	0.068
L73Q	0.0673	0.0551	0.0586		0.0532		0.058	0.0644			0.0338	0.0533	0.0221	0.0568	0.0509	0.0756	0.0559	0.0636	
L73R	0.0455	0.0554		0.0597	0.0517	0.0668	0.0495		0.0653			0.0696	0.0427	0.0549	0.0535	0.0498	0.0442	0.0476	0.052
G39F	0.0418		0.0471	0.0432		0.0515	0.0442		0.0638	0.0224		0.0438	0.0476	0.0455	0.0436	0.0077	0.0446	0.0476	0.0413
G39L	0.0497		0.0449	0.0437	0.0415		0.0469	0.0375				0.0589	0.0385	0.0382	0.0424	0.0506	0.0284	0.0411	0.0346
H62I	0.08	0.0662	0.0681		0.0575		0.034	0.0664		0.0667		0.0706			0.0453	0.069		0.0694	
S4I	0.0839	0.0501	0.0219			0.0724	0.0592	0.103	0.155			0.0747	0.0752		0.0645	0.0958	0.0976	0.056	0.14
I84S	0.071	0.0618	0.0571	0.0702	0.0552	0.0622	0.0588	0.0589	0.104	0.0625	0.0608	0.0711	0.0583	0.0566	0.0694	0.0884		0.0622	0.0657
Q198N	0.078		0.0712		0.0628	0.0636	0.0566		0.11			0.0699			0.074		0.076		0.0915
H76M	0.0898	0.0815	0.0809	0.131	0.0716	0.0254	0.075			0.0341		0.0669		0.0765					
I139V	0.0725	0.0669	0.0711	0.11	0.073	0.0475	0.0558		0.127	0.056	0.0741	0.0679	0.0589	0.0657	0.0841	0.0849		0.0777	0.139
K90G	0.0747	0.0596		0.112	0.0651	0.0667		0.0806					0.0674	0.041			0.0942	0.0569	
T71V	0.0438	0.0665	0.0641		0.0716		0.0633		0.113	0.0108		0.057	0.0302	0.0451	0.0681	0.0161	0.0702		
N177I	0.0878	0.0629	0.104	0.21	0.0948	0.0648	0.065	0.0989	0.161			0.0762		0.0828	0.0943				
F65N	0.0741	0.0523	0.0826	0.13	0.0703	0.0614	0.0606				0.0708	0.129	0.0613	0.0675			0.071	0.0645	
L156R	0.049		0.0489	0.0444	0.0447	0	0.0379	0.0386				0.0608	0.0325	0.0307	0.0463	0.0523	0.0502	0.0463	
S127L	0.0824		0.059	0.13	0.0665	0.112		0.0642	0.1			0.0907	0.0653		0.0719		0.111	0.0669	
T115Y	0.0689	0.0806	0.0684		0.0528	0.0423	0.0645			0.0657		0.0751			0.0775		0.0468		
T114R	0.0904	0.0626	0.092					0.0794	0.105	0.0671	0.0796	0.0719	0.0706	0.0769	0.0942	0.0826	0.115	0.0782	0.0603
F49Q	0.0483	0.0572	0.0499	0.0598	0.052	0.0525	0.0548		0.0574	0.0327	0.0604	0.0532	0.0618	0.0581	0.0638			0.0627	0.0425
G166W	0.0543		0.056		0.0608				0.0564	0.0545	0.0569	0.055	0.0464	0.0765		0.0545	0.0442	0.0524	
G166F	0.0568	0.0511	0.0528	0.0405	0.0406					0.0324	0.0594	0.0669		0.0574		0.0497	0.0471		
